Target: the molecule itself
Experiment: SEC-MALS; Superdex 200 10/300 in 25 mM HEPES pH 7.5, 150 mM NaCl, 0.02% sodium azide; AIF 33 µM, CHCHD4 50 µM with 5 mM TCEP, complexes with 120 µM NADH, incubated 10 min at room temperature

B1: AIF([…]), wild type (domain or fragment)
chain: not shown
notes: Apoptosis-inducing factor (AIF), human, […], lacking the inner mitochondrial membrane tether; Construct from Brosey et al 2016; also called Apoptosis-inducing factor; AIF + NADH; source: E. coli Rosetta2(DE3), purified (Ni-NTA, PreScission cleavage, subtractive Ni-NTA, Superdex 200)
- stoichiometry N: 2

— paper PMC11832770, “NADH-bound AIF activates the mitochondrial CHCHD4/MIA40 chaperone by a substrate-mimicry mechanism” (The EMBO Journal, 2025)
